# Measured values reported in article PMC5021521, “Coordinated recruitment of Spir actin nucleators and myosin V motors to Rab11 vesicle membranes” (eLife, 2016).
# Amino acid sequences for entries named in this document (tags omitted). A change or cut given only in a name is not applied to a line headed by its entry. Chains listed by the source or under a name are the forms on record and can include a tag or linker. Residues count along the entry.
# UniProt Q9Y4I1, residues 1461-1853: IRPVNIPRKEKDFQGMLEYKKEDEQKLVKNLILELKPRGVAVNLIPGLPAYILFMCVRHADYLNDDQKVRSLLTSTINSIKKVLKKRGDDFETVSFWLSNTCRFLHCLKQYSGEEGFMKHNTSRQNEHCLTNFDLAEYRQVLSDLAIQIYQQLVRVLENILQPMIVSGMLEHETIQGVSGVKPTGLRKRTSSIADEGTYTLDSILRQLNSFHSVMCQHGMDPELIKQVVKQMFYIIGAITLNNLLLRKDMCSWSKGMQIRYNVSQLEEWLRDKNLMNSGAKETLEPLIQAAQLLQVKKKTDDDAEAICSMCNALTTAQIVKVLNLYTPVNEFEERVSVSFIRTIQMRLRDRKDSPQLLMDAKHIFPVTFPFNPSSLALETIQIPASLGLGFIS
# UniProt Q08AE8, residues 2-756: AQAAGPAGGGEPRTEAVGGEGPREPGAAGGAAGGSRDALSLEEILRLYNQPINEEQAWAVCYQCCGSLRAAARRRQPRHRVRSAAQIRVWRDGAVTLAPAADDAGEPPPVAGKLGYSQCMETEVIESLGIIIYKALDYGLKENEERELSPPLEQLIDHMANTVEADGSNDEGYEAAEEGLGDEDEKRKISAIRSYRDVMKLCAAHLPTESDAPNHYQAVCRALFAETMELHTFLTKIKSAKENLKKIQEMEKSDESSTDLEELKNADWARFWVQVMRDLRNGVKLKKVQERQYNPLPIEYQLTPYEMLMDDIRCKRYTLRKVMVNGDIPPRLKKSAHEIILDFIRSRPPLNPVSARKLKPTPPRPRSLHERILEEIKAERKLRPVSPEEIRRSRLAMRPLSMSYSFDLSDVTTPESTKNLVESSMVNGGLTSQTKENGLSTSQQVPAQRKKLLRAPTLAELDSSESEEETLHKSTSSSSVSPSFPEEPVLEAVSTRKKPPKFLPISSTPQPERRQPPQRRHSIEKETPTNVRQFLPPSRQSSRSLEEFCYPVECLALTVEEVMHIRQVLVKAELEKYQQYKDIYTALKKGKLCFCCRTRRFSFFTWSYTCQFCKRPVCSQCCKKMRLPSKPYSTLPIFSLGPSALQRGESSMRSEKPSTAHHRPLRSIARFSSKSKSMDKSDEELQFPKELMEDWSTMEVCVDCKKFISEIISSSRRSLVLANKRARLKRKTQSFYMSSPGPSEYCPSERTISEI
# Rab11-wt(GDP), His6-tagged (P62491, residues 1-177): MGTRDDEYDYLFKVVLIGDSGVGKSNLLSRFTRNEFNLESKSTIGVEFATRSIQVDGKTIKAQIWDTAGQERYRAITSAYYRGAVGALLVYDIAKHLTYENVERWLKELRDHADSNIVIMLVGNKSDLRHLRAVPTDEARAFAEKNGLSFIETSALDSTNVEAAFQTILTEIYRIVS
# His6-Rab11a-Q70L-1-173 (P62491, form named): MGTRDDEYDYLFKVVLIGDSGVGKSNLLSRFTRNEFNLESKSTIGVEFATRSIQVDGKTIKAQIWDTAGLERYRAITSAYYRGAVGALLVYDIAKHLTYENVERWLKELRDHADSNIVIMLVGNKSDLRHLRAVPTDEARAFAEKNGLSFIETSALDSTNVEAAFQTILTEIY
# UniProt Q9ULV0, residues 1467-1848: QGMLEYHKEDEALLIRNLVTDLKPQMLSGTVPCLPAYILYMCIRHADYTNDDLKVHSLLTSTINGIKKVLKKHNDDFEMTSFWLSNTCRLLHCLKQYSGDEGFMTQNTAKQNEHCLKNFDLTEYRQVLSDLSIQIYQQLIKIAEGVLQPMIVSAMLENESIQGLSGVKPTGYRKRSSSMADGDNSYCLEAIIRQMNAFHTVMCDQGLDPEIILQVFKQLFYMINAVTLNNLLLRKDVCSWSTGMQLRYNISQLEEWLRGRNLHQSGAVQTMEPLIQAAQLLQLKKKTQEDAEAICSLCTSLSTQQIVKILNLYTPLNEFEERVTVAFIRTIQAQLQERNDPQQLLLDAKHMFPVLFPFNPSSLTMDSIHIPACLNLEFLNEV
# Results are given in words; binding and its absence hold for the method and conditions named. For part of these data: In cells and extracts the contact can be indirect. Some entries that bind do so weakly or less than the wild type. For part of these data: Sequences can lack the tags named with a protein.
# T1: Myc-Spir-2 full-length (human) (UniProt Q8WWL2)
# T1 sequence: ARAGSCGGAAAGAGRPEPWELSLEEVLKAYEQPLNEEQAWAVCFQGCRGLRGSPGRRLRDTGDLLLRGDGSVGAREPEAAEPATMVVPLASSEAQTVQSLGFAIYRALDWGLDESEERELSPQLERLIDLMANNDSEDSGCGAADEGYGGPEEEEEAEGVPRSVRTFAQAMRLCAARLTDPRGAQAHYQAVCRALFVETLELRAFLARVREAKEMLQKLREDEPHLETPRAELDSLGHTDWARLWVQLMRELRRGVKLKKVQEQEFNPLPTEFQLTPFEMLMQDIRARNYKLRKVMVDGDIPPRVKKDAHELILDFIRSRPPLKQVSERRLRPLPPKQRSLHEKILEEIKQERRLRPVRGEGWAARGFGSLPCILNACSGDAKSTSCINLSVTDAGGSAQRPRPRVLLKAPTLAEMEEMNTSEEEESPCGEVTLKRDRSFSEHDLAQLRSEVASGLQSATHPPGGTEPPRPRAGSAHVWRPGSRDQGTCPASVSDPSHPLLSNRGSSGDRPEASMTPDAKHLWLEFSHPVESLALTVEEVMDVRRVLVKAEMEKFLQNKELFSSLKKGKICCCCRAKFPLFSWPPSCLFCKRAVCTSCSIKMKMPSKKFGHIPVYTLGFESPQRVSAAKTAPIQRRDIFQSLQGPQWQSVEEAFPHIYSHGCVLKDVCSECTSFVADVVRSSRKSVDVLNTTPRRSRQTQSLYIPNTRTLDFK
# T2: Myc-Spir-2-398-714 (human) (UniProt Q8WWL2)
# T2 sequence: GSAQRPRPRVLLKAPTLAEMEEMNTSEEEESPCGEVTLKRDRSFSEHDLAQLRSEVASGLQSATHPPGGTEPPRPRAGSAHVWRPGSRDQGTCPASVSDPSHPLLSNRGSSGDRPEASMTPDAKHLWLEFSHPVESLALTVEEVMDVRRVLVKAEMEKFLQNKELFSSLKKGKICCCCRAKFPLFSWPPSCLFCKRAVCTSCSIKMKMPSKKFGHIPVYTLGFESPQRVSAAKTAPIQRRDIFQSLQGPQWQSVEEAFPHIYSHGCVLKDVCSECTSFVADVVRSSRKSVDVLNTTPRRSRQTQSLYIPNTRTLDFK
# T3: Myc-Spir-2-2-410 (human) (UniProt Q8WWL2)
# T3 sequence: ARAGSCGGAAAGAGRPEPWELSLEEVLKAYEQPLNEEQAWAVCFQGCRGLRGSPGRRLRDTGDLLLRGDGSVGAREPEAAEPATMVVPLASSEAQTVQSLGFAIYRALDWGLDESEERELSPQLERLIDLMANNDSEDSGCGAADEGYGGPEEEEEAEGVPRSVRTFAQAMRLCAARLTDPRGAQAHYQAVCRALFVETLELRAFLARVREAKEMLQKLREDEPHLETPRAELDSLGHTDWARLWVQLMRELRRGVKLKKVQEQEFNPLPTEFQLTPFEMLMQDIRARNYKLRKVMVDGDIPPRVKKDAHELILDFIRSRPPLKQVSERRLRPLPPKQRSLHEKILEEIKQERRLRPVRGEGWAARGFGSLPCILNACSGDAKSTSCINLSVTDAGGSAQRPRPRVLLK
# T4: Myc-Spir-2-SB-FYVE (human) (UniProt Q8WWL2)
# T4 sequence: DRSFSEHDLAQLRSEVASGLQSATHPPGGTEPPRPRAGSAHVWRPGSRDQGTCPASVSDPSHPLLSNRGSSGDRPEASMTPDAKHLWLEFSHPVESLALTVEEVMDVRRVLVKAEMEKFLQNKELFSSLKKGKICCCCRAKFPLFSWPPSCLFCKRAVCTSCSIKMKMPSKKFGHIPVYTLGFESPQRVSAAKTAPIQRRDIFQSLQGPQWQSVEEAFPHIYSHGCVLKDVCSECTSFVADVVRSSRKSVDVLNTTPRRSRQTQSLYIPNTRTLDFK
# T5: Myc-Spir-2-2-423 (human) (UniProt Q8WWL2)
# T5 sequence: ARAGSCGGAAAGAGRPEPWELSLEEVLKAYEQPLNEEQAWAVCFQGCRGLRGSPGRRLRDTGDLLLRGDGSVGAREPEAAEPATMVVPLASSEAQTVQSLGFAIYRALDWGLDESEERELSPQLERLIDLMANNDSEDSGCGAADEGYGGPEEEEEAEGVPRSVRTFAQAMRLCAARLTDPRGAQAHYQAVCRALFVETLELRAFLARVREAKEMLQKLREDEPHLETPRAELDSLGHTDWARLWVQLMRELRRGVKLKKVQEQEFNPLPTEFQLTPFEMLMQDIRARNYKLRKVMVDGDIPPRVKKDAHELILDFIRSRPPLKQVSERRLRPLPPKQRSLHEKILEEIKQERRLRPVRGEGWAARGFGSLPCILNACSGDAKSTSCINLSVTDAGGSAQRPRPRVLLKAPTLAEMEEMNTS
# T6: Myc-Spir-2-411-714 (human) (UniProt Q8WWL2)
# T6 sequence: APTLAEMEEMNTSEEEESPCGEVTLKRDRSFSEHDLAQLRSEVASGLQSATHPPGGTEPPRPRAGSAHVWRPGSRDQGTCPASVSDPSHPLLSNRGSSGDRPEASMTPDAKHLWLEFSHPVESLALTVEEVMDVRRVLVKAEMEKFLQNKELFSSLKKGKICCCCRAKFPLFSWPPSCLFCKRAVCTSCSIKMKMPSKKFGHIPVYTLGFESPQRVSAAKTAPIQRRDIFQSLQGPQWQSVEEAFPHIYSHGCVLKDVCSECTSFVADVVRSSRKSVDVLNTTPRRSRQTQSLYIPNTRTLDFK
# T7: GST-Spir-2-GTBM-SB-FYVE (human) (UniProt Q8WWL2)
# T7 sequence: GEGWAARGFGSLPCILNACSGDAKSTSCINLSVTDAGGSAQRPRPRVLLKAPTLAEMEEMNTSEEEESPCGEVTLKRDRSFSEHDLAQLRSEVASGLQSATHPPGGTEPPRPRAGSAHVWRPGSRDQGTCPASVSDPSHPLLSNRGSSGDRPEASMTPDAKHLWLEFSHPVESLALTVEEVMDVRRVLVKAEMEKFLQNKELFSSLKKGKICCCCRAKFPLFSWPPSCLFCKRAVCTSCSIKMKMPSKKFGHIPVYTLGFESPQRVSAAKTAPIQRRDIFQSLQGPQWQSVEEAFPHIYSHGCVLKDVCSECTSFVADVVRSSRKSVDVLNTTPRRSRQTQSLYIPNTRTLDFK
# T8: Fluorescein-Spir-2-GTBM peptide (human)
# T8 sequence (peptide, 5-FAM-Ahx on the N-terminus (fluorescein)): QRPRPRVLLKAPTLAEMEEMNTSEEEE
# B1: His6-mCherry-Spir-2-linker (domain or fragment, human, UniProt Q8WWL2 361-519, looked up)
# chain: GEGWAARGFGSLPCILNACSGDAKSTSCINLSVTDAGGSAQRPRPRVLLKAPTLAEMEEMNTSEEEESPCGEVTLKRDRSFSEHDLAQLRSEVASGLQSATHPPGGTEPPRPRAGSAHVWRPGSRDQGTCPASVSDPSHPLLSNRGSSGDRPEASMTPD
# notes: Spir-2 central linker region, human, aa 361-519; also called His-mCherry-Spir2-linker; His6-mCherry-hs-Spir2-linker; source: E. coli (Rosetta or Rosetta (DE3) pLysS; BL21(DE3)), purified (Ni-NTA, Superdex 200); not shown: His6, N-terminal, kept; mCherry, N-terminal, kept
# Assays:
# [1] = biological target: MyoVa-GTD (human, aa 1461-1853) (human) (UniProt Q9Y4I1); test: crystal structure; hanging drops, 17°C; MyoVa-GTD with Rab11a 1:1 and 2 mM beryllium fluoride; MyoVa-GTD with Spir-2-401-427 peptide 1:3; both purified
# [2] = biological target: T1, Myc-Spir-2 full-length (human); test: co-IP; HEK293 cells co-transfected with Myc-tagged Spir and GFP-tagged MyoV fragments; lysates precipitated with anti-c-Myc (9E10) and Protein G-Agarose; 25 mM Tris-HCl pH 7.4, 150 mM NaCl, 5 mM MgCl2, 10% glycerol, 0.1% NP-40; immunoblot
# [3] = biological target: T2, Myc-Spir-2-398-714 (human); test: as above
# [4] = biological target: Myc-Spir-1 full-length (human) (UniProt Q08AE8); test: as above
# Myc-Spir-2-2-410 (human) = biological target: T3, Myc-Spir-2-2-410 (human); test: as above
# [5] = biological target: T4, Myc-Spir-2-SB-FYVE (human); test: as above
# Myc-Spir-2-2-423 (human) = biological target: T5, Myc-Spir-2-2-423 (human); test: as above
# [6] = biological target: T6, Myc-Spir-2-411-714 (human); test: as above
# [7] = biological target: MyoVa-GTD (human, aa 1461-1853) (human) (UniProt Q9Y4I1); test: SEC; analytical gel filtration, Superdex 200 10/30 Increase; 50 mM Tris pH 8.0, 150 mM NaCl, 2 mM MgCl2, 2 mM TCEP; His6-Rab11a-1-173-Q70L 6 mg/ml, MyoVa-GTD 5 mg/ml, His6-mCherry-Spir-2-linker 6 mg/ml, alone, pairwise or all three; fractions on SDS-PAGE; both purified
# [8] = biological target: T7, GST-Spir-2-GTBM-SB-FYVE (human); test: pull-down; 65 ug GST-Spir-2-GTBM-SB-FYVE on beads, 35 ug Rab11a-Q70L with or without 40 ug MyoVa-GTD, 2 hr; immunoblot with anti-myosin Va and anti-Rab11; both purified
# [9] = biological target: Rab11-wt(GDP), His6-tagged (human) (UniProt P62491); test: SPR; Rab11a-Q70L(GTP) or Rab11-wt(GDP) captured through His6-tag on NTA sensorchip (200-250 RU), Biacore 2000; MyoVa-GTD or MyoVb-GTD 10 nM-5 uM injected; 25°C; 50 mM Hepes pH 7.5, 100 mM NaCl, 2 mM MgCl2, 1 mM TCEP; steady state; both purified
# [10] = biological target: T8, Fluorescein-Spir-2-GTBM peptide (human); test: fluorescence polarisation; fluorescence anisotropy; 1 uM fluorescein-Spir-2-401-427 titrated with MyoVa-GTD or MyoVb-GTD (50 nM-5 uM); 25°C; 100 mM Tris-HCl pH 8.0, 150 mM NaCl, 2 mM MgCl2, 2 mM TCEP, 5% glycerol; both purified
# [11] = biological target: MyoVa-GTD (human, aa 1461-1853) (human) (UniProt Q9Y4I1); test: crystal structure; hanging drops, 17°C; MyoVa-GTD with Rab11a 1:1 and 2 mM beryllium fluoride; MyoVa-GTD with Spir-2-401-427 peptide 1:3; both purified; remark: listed apart in the source
molecule,measurement,setting,value
Rab11a (crystallised with MyoVa-GTD) (from UniProt P62491 1-177) (domain or fragment),binding,[1],binds
GFP-MyoVb-GTD (from UniProt Q9ULV0 1467-1848) (domain or fragment),binding,[2],binds
same,binding,[3],binds
same,binding,[4],binds
same,binding,Myc-Spir-2-2-410 (human),no binding
same,binding,[5],no binding
same,binding,Myc-Spir-2-2-423 (human),binds
same,binding,[6],no binding
His6-Rab11a-Q70L-1-173 (from UniProt P62491 1-173) (domain or fragment),binding,[7],binds
"MyoVa-GTD (human, aa 1461-1853) (from UniProt Q9Y4I1 1461-1853) (domain or fragment)",binding,[8],binds
same,binding,[7],no binding (tested: 5 mg/ml)
same,binding,[9],binds
same,binding,[10],binds
QRPRPRVLLKAPTLAEMEEMNTSEEEE [Spir-2-GTBM peptide (Spir-2-401-427)],binding,[11],binds
B1,binding,[7],binds
